By Kd is commonly meant the constant that tells how readily two partners part at equilibrium. By koff is commonly meant a measure of how fast the partners let go of each other. A higher koff goes with a short-lived complex. By kon is commonly meant the rate constant with which the complex forms. High values mean faster complex formation, low ones slower complex formation.

The target of the experiment is T1, Human GITR (Acro Biosystems, #GIR-H5228) (human, UniProt Q9Y5U5 26-161).
T1 construct: Bought recombinant protein, amine-coupled to the sensor tips; also called hGITR
T1 sequence: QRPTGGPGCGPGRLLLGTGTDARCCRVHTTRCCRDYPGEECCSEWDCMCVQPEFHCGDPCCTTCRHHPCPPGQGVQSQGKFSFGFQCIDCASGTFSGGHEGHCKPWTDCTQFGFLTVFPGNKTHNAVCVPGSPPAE
The experiment is described as follows: BLI (Octet RED96), GITR amine-coupled to AR2G tips, bispecific as analyte, 1:1 fit. For orientation: Biolayer interferometry detects binding as a change in optical thickness at a sensor tip.

B1: GITR/CTLA-4 bispecific antibody 2396/2397 (bispecific antibody)
VH: [left out - about 100 residues]AYPVHGYWVFDYWGQGTLVTVSS
light: [left out - about 200 residues]SGGGGSGGGGSAPLKIQAYFNETADLPCQFANSQNLSLSELVVFWQDQENLVLNEVYLGKERFDSVDSKYMGRTSFDSDSWTLRLHNLQIKDKGRYQCIIHHKKPTGMINIHQMNSELSVLA
As to B1, binding was characterised by a dissociation constant (Kd) of 0.673 nM, the koff came out at 0.000146 s⁻¹ and the kon was determined as 217000 M⁻¹ s⁻¹.

For the origin of these results see patent US20190309084A1 (ALLIGATOR BIOSCIENCE, published 2019).
